The record followed here is PubChem BioAssay AID463173 (ICCB-Longwood Screening Facility, Harvard Medical School, 2010).

Out of some 52,000 compounds screened, about 1,700 (3.3%) were called active. No stated cut-off is given here; in the data, active means survival mostly below about 52% (no sharp cut-off); inactive means mostly above about 56%. The list shows a part of the results.

The subject of the experiment is Wild type. The experiment is described as follows: growth inhibition of S. aureus wild type versus tarO mutant, primary screen, teichoic acid synthesis inhibitors, RN4220, OD600 (AID 463173). The following applies: S. aureus RN4220 wild type/DeltatarO growth, OD600, 18 h, active compounds read low, screened at 18.75 µg/mL (by protocol).
Turning to `O=C(CSc1nc2ccccc2n1Cc1cccc(F)c1)N1CCN(c2ccc(F)cc2)CC1`, the survival is inactive: 72%.

Regarding `O=C(NC1CCCCCC1)c1ccc(CS(=O)c2cccc(Cl)c2)o1` (configuration not stated), the survival is inactive: 104%.

In the case of `Cc1nc(-c2ccc(C)c(S(=O)(=O)N3CCC(C(=O)NCc4ccc(F)cc4)CC3)c2)no1`, the survival is inactive: 85%.

For the compound `Cc1cccc(-n2nnc(-c3nc(-c4cccs4)no3)c2N)c1`, the survival is inactive: 102%.

Regarding `Cc1ccc(C)c(CNC(=O)CN2C(=O)CSc3ccc(S(=O)(=O)N(C)C)cc32)c1`, the survival was inactive: 85%.

As to `O=S(=O)(c1ccc2nc(Nc3ccc(F)cc3)ccc2c1)N1CCCC1`, the survival was inactive: 83%.

On to `Cc1cc(N2CCC(C)CC2)nc2ccc(NC(=O)CCC(=O)N3CCN(c4ccccc4F)CC3)cc12`, for which the survival is inactive: 70%.

For the compound `CCc1ccc(NC(=O)Cn2c(=O)n(CCc3ccccc3)c(=O)c3sc4ccccc4c32)cc1`, the survival was inactive: 90%.

For the compound `CC(=O)c1cccc(N2C(=O)CN(S(C)(=O)=O)CC2(C)C(=O)NC2CCCC2)c1` (configuration not stated), the survival was inactive: 85%.

`COc1ccc(S(=O)(=O)N(CCc2ccccc2)CC(=O)Nc2cc(C)cc(C)c2)cc1OC`: the survival was inactive: 69%.

As to `Cc1ccc(C)c2[nH]c(=O)c(CN(CCN3CCCC3)C(=O)Nc3cccc(Cl)c3)cc12`, the survival is inactive: 106%.

For the compound `COc1ccccc1N1CCN(S(=O)(=O)CCNC(=O)C(c2ccccc2)c2ccccc2)CC1`, the survival was inactive: 71%.

`O=C(NC1CCCCC1)c1ccc2c(c1)N(Cc1cccc(Cl)c1)C(=O)c1ccccc1S2=O` (configuration not stated): the survival is inactive: 78%.

In the case of `CCc1ccc(NC(=O)c2sc3nc(C)cc(C)c3c2NC(=O)c2ccccc2OC)cc1`, the survival is inactive: 77%.

Regarding `CCN(Cc1ccccc1)C(=O)CCS(=O)(=O)c1ccc2c(c1)CCN2C(C)=O`, the survival is inactive: 84%.

As for `CC(=O)c1cc2c(cc1N/C(=N/S(=O)(=O)c1ccc(F)cc1)c1ccccc1)OCO2`, the survival was inactive: 73%.

As for `COc1ccc(CN2CCN(S(=O)(=O)c3ccc(NC(C)=O)cc3)CC2)c(OC)c1OC`, the survival was inactive: 80%.

With `CCc1ccc(-c2nc(CSCC(=O)NCc3ccc(C)cc3)c(C)o2)cc1`, the survival is active: 0%.

As to `O=C(NCc1ccco1)c1ccc2c(c1)N(Cc1cccc(Cl)c1)C(=O)c1ccccc1S2=O` (configuration not stated), the survival is inactive: 45%.

Regarding `CCOc1ccc(CCNC(=O)Cn2c(C)c3cnn(-c4ccccc4)c(=O)c3c2C)cc1`, the survival is inactive: 95%.

As to `O=C(Cn1ncc2c3ccccc3n(Cc3cccc(Cl)c3)c2c1=O)N1CCCCCC1`, the survival was inactive: 86%.

`Fc1cccc(Nc2nc(Cl)nc(Cl)n2)c1`: the survival is inactive: 108%.

For `CCc1c(CN2CCN(c3cccc(C)c3)C(C)C2)csc1C` (configuration not stated), the survival was inactive: 94%.

As for `CCn1cc(C(=O)NC2CCCCC2)c(=O)c2ccc(C)nc21`, the survival was inactive: 116%.

Turning to `COc1cc(OC)c(NC(=O)CSc2cc(=O)n(C)c3ccc(Cl)cc23)cc1Cl`, the survival is inactive: 79%.

`CCc1ccc(NC(=O)CC2C(=O)N(c3ccc(Cl)cc3)C(=O)N2C2CCCC2)cc1` (configuration not stated): the survival was inactive: 159%.

On to `Cc1ccccc1Cn1c2ccccc2c2cnn(CC(=O)NCCc3ccc(Cl)cc3)c(=O)c21`, for which the survival was inactive: 89%.

As to `CC(=O)c1cccc(Nc2nc(-c3ccccc3Cl)nc3ccccc23)c1`, the survival was inactive: 66%.

In the case of `Cc1cccc(OCCn2c(-c3ccc(Cl)cc3)nc3ccccc3c2=O)c1C`, the survival is inactive: 76%.

Take `O=C(NC1CC(=O)N(c2ccccc2)C1)c1ccc(S(=O)(=O)N2CCCC2)cc1` (configuration not stated): the survival was inactive: 133%.

For the compound `Nc1ncc(S(=O)(=O)NCc2ccc(F)cc2)cn1`, the survival is inactive: 71%.

For the compound `CC(CCCc1ccccc1)NC(=O)c1nn(-c2ccc(Cl)cc2)nc1CO` (configuration not stated), the survival is inactive: 78%.

Turning to `CC(C)c1cccc(C(C)C)c1NS(=O)(=O)c1cccs1`, the survival was inactive: 79%.

In the case of `Cc1ccc2[nH]c3c(=O)n(CC(=O)N4CCCC(C)C4)ncc3c2c1` (configuration not stated), the survival is inactive: 60%.

In the case of `COc1ccc(C(=O)CCC(=O)Nc2cc(C)ccc2C)cc1`, the survival was inactive: 89%.

`O=C(C1CCC1)N1CCCC(c2nc3c(nnn3Cc3cccc(Cl)c3)c(=O)[nH]2)C1` (configuration not stated): the survival is inactive: 124%.

In the case of `CCOC(=O)c1c(C)[nH]c(C)c1S(=O)(=O)NCC(=O)N1CCN(c2ccccc2F)CC1`, the survival was inactive: 67%.

Take `COc1ccc(CNC(=O)C2CCN(S(=O)(=O)c3ccc4c(ccn4C)c3)CC2)cc1`: the survival is inactive: 86%.

Take `Cc1cc(C)c2c(-n3cccc3)c(C(=O)NCC(C)c3ccccc3)sc2n1` (configuration not stated): the survival was inactive: 83%.

Consider `Cc1cccc2sc(N(Cc3cccnc3)C(=O)COc3ccccc3)nc12`, for which the survival is inactive: 84%.

Take `CCOc1ccccc1NC(=O)c1cc2c(=O)[nH]c3ccccc3c2s1`: the survival is inactive: 79%.

For `CC(C)c1ccc(NC(=O)Cn2c(=O)oc3cc(S(=O)(=O)N4CCCC4)ccc32)cc1`, the survival was inactive: 124%.

On to `CCc1ccc(NC(=O)c2ccc(F)c(S(=O)(=O)N3CCN(c4cc(C)ccc4C)CC3)c2)cc1`, for which the survival is inactive: 87%.

Turning to `Cc1noc2ncnc(N3CCCC(C(=O)Nc4cccc(C(F)(F)F)c4)C3)c12` (configuration not stated), the survival is inactive: 66%.

For `Cc1cc(C)c2c(=O)c3c(oc2c1)C(=O)N(Cc1ccco1)C3c1ccccc1F` (configuration not stated), the survival is inactive: 117%.

For `COc1ccc(-c2nc(S(=O)(=O)c3ccc(C)cc3)c(NCc3ccccc3)o2)cc1`, the survival was inactive: 85%.

Consider `Cn1cc(-c2cc3n(n2)CCC(=O)N3CCCC(=O)Nc2ccccc2F)c2ccccc21`, for which the survival was inactive: 159%.

Regarding `CCc1c(C)c(C#N)c2nc3ccccc3n2c1Nc1cccc(C(F)(F)F)c1`, the survival was inactive: 73%.

Consider `CCOC(=O)CC1NC(=O)c2ccccc21` (configuration not stated), for which the survival is inactive: 114%.

With `Cc1c(C(=O)NCc2ccccc2Br)oc2ccc3c(c12)C(=O)CC(C)(C)O3`, the survival was inactive: 81%.

Take `COc1ccc(NC(=O)c2sc3nc4c(cc3c2N)CN(Cc2ccccc2)CC4)cc1OC`: the survival is inactive: 94%.

In the case of `CCc1cccc(NC(=O)C(CC)n2nc(C)c3sc4ccccc4c3c2=O)c1` (configuration not stated), the survival is inactive: 87%.

For the compound `O=C(NCCCN1CCN(c2ccc(F)cc2)CC1)c1ccc2nc(CCc3ccccc3)oc2c1`, the survival was inactive: 63%.

Turning to `COc1ccc(Nc2nc(-c3ccccc3F)nc3ccccc23)cc1OC`, the survival is inactive: 71%.

Turning to `Cc1noc(-c2ccc(-c3noc(-c4ccc(C(F)(F)F)cc4)n3)cc2)n1`, the survival is inactive: 123%.

For the compound `CC(C)c1ccc(NC(=O)C(Cc2ccccc2)NS(=O)(=O)c2ccc3c(c2)oc(=O)n3C)cc1` (configuration not stated), the survival was inactive: 98%.

With `CN(C)CCNC(=O)Cn1nc(N2CCN(c3ccccc3)CC2)ccc1=O`, the survival is inactive: 117%.

Consider `CCOc1ccc(CC(=O)NCc2ccc3c(c2)CCN3C(C)=O)cc1OCC`, for which the survival was inactive: 124%.

Turning to `Cc1ccc(C)c(S(=O)(=O)c2nnn3c2nc(N2CCCCC2)c2sccc23)c1`, the survival was inactive: 81%.

In the case of `CC(C)(C)OC(=O)N1CCC(c2c(C(=O)N3CCN(c4ncccn4)CC3)cnn2-c2cccc(F)c2)CC1`, the survival was inactive: 134%.

On to `COc1ccc(NC(=O)CCc2nnc3n(CC(C)C)c(=O)c4ccccc4n23)cc1OC`, for which the survival is inactive: 92%.

Regarding `COc1ccc(Nc2nc(OC)nc(OC)n2)cc1`, the survival was inactive: 115%.

With `COc1ccc(OC)c(NC(=O)Cn2cc(C(=O)c3ccc(Cl)cc3)c(=O)c3cc(OC)ccc32)c1`, the survival was inactive: 68%.

As for `CC(=O)Nc1nonc1-c1nnc(SCc2ccccc2Cl)n1C`, the survival was inactive: 80%.

As for `Cc1ccc(O)c(NC(=O)COCc2cc(-c3ccco3)on2)c1`, the survival is inactive: 87%.

`COc1cc2c(cc1OC)n(CC(=O)c1ccc(C)cc1)c(=O)n1nc(CCn3nc(C)cc3C)nc21`: the survival is inactive: 143%.

For `COc1ccc(-c2cc(C(=O)Oc3cccc(C)c3C)c3ccccc3n2)cc1`, the survival is active: 12%.

Regarding `COc1ccc(NC(=O)c2ccc3c(c2)CCN3S(=O)(=O)c2ccccc2)cc1`, the survival is inactive: 106%.

Consider `COC(=O)c1cc(OC)c(OC)cc1NC(=O)c1ccc2c(c1)CCN2S(=O)(=O)c1ccccc1`, for which the survival was inactive: 86%.

Regarding `Fc1ccc(-n2ncc3c(N4CCN(Cc5ccccc5)CC4)ncnc32)cc1`, the survival is inactive: 81%.

`O=C(NCc1ccccn1)c1nn(-c2ccccc2F)nc1CO`: the survival was inactive: 87%.

As for `COc1ccc(CCN2C(=O)CN(C3CCCCCC3)C(=O)C2c2ccc(C)cc2)cc1OC` (configuration not stated), the survival was inactive: 69%.

Regarding `Fc1ccccc1C1=NC(c2ccc(C(F)(F)F)cc2)=Nc2ccccc2N1`, the survival was inactive: 86%.

For `CCOc1ccccc1CN1CCc2nc(Nc3ccccc3)ncc2C1`, the survival was inactive: 82%.

With `COc1cc(CN2CCN(S(=O)(=O)c3ccc(F)cc3)CC2)cc(OC)c1OC`, the survival is inactive: 77%.

Take `COc1cccc(CNC(=O)CCNS(=O)(=O)c2ccc3c(c2)CCCC(=O)N3)c1`: the survival is inactive: 53%.

For `COc1cccc(N=c2oc3cc(O)ccc3cc2C(=O)NCC2CCCO2)c1` (configuration not stated), the survival is inactive: 113%.

`CCc1ccc(CNC(=O)c2ccc3c(c2)nc2n3CCCCC2)cc1`: the survival is inactive: 71%.

Turning to `COc1ccc(OC)c(CCNC(=O)CN2C(=O)COc3ccc(S(=O)(=O)N4CCCCCC4)cc32)c1`, the survival was inactive: 77%.

For the compound `Cc1ccc(C)c(Cn2cnc3ccccc3c2=O)c1`, the survival was inactive: 54%.

For the compound `COc1cccc(CNC(=O)CSc2n[nH]c(-c3ccccc3Cl)n2)c1`, the survival was inactive: 75%.

`O=C(CSc1ccc2nnc(CCNS(=O)(=O)c3ccccc3)n2n1)Nc1ccccc1C(F)(F)F`: the survival was inactive: 107%.

As for `CCc1cccc(NC(=O)CN2c3ccccc3S(=O)(=O)c3ccccc32)c1`, the survival is inactive: 68%.

`CC(=O)N1c2ccc(S(=O)(=O)NCCC(=O)Nc3ccc(C)cc3Br)cc2CC1C` (configuration not stated): the survival is inactive: 91%.

Turning to `CC1=C(C(=O)Nc2ccccc2)C(c2cccs2)n2nc(SCc3ccccc3)nc2N1` (configuration not stated), the survival was inactive: 94%.

`O=C(Nc1c2c(nn1-c1ccc(Cl)cc1)CS(=O)(=O)C2)c1cccc(Cl)c1`: the survival is inactive: 70%.

Consider `COc1ccc(OC)c(NC(=O)c2cc3cc4ccc(C)cc4nc3s2)c1`, for which the survival is inactive: 87%.
